{"source": "the supplement of paper PMC8728848", "binders": {"B1": {"name": "RfpB (Mycobacterium tuberculosum), O05594 (protein)", "chain": "MAAGLVTASMSLSTAVAHAGPSPNWDAVAQCESGGNWAANTGNGKYGGLQFKPATWAAFGGVGNPAAASREQQIAVANRVLAEQGLDAWPTCGAASGLPIALWSKPAQGIKHAGPSPNWDAVAQCESGGNWAANTGNGKYGGLQFKPATWAAFGGVGNPAAASREQQIAVANRVLAEQGLDAWPTCGA"}}, "assay_in_all_cases": "glycan array binding signal (z-score within array); higher = stronger binding", "settings_in_all_cases": "glycan notation: IUPAC condensed, linker removed", "key": {"GalNAc(b1-4)GlcNAc": {"molecular_target": "GalNAc(b1-4)GlcNAc", "procedure,_shortened": "(§1)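 Negative Z-scores can be read as non-binding. The Z-score is calculated within each array and then averaged across arrays of one protein sequence at different concentrations or buffers and across linkers. Arrays, 3228 in all, were curated from the Consortium for Functional Glycomics database and kept only where the protein sequence was available.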"}, "Glc(a1-4)Glc": {"molecular_target": "Glc(a1-4)Glc", "procedure,_shortened": "as §1"}, "Glc(a1-6)Glc(a1-6)Glc": {"molecular_target": "Glc(a1-6)Glc(a1-6)Glc", "procedure,_shortened": "as §1"}, "Glc(b1-4)Glc": {"molecular_target": "Glc(b1-4)Glc", "procedure,_shortened": "as §1"}, "Glc(b1-6)Glc": {"molecular_target": "Glc(b1-6)Glc", "procedure,_shortened": "as §1"}, "GlcA(b1-3)Gal": {"molecular_target": "GlcA(b1-3)Gal", "procedure,_shortened": "as §1"}, "GlcA(b1-3)GlcNAc": {"molecular_target": "GlcA(b1-3)GlcNAc", "procedure,_shortened": "as §1"}, "GlcA(b1-6)Gal": {"molecular_target": "GlcA(b1-6)Gal", "procedure,_shortened": "as §1"}, "[1]": {"molecular_target": "GlcNAc(a1-3)Gal(b1-4)GlcNAc", "procedure,_shortened": "as §1"}, "[2]": {"molecular_target": "GlcNAc(a1-6)Gal(b1-4)GlcNAc", "procedure,_shortened": "as §1"}, "[3]": {"molecular_target": "GlcNAc(b1-2)Gal(b1-3)GalNAc", "procedure,_shortened": "as §1"}, "[4]": {"molecular_target": "GlcNAc(b1-2)Man(a1-3)[GlcNAc(b1-2)Man(a1-6)]Man(b1-4)GlcNAc(b1-4)GlcNAc", "procedure,_shortened": "as §1"}, "GlcNAc(b1-3)Gal": {"molecular_target": "GlcNAc(b1-3)Gal", "procedure,_shortened": "as §1"}, "[5]": {"molecular_target": "GlcNAc(b1-3)Gal(b1-3)GalNAc", "procedure,_shortened": "as §1"}, "GlcNAc(b1-3)Gal(b1-4)Glc": {"molecular_target": "GlcNAc(b1-3)Gal(b1-4)Glc", "procedure,_shortened": "as §1"}, "[6]": {"molecular_target": "GlcNAc(b1-3)Gal(b1-4)GlcNAc", "procedure,_shortened": "as §1"}, "[7]": {"molecular_target": "GlcNAc(b1-3)Gal(b1-4)GlcNAc(b1-3)Gal(b1-4)GlcNAc", "procedure,_shortened": "as §1"}, "GlcNAc(b1-3)GalNAc": {"molecular_target": "GlcNAc(b1-3)GalNAc", "procedure,_shortened": "as §1"}, "GlcNAc(b1-3)Man": {"molecular_target": "GlcNAc(b1-3)Man", "procedure,_shortened": "as §1"}, "[8]": {"molecular_target": "GlcNAc(b1-3)[GlcNAc(b1-4)][GlcNAc(b1-6)]GlcNAc", "procedure,_shortened": "as §1"}, "[9]": {"molecular_target": "GlcNAc(b1-3)[GlcNAc(b1-6)]Gal(b1-4)GlcNAc", "procedure,_shortened": "as §1"}, "[10]": {"molecular_target": "GlcNAc(b1-3)[GlcNAc(b1-6)]GalNAc", "procedure,_shortened": "as §1"}, "[11]": {"molecular_target": "GlcNAc(b1-4)Gal(b1-4)GlcNAc", "procedure,_shortened": "as §1"}, "GlcNAc(b1-4)GlcNAc": {"molecular_target": "GlcNAc(b1-4)GlcNAc", "procedure,_shortened": "as §1"}, "[12]": {"molecular_target": "GlcNAc(b1-4)GlcNAc(b1-4)GlcNAc", "procedure,_shortened": "as §1"}, "[13]": {"molecular_target": "GlcNAc(b1-4)GlcNAc(b1-4)GlcNAc(b1-4)GlcNAc(b1-4)GlcNAc", "procedure,_shortened": "as §1"}, "[14]": {"molecular_target": "GlcNAc(b1-4)GlcNAc(b1-4)GlcNAc(b1-4)GlcNAc(b1-4)GlcNAc(b1-4)GlcNAc", "procedure,_shortened": "as §1"}, "[15]": {"molecular_target": "GlcNAc(b1-4)[GlcNAc(b1-6)]GalNAc", "procedure,_shortened": "as §1"}, "[16]": {"molecular_target": "GlcNAc(b1-6)Gal(b1-4)GlcNAc", "procedure,_shortened": "as §1"}, "GlcNAc(b1-6)GalNAc": {"molecular_target": "GlcNAc(b1-6)GalNAc", "procedure,_shortened": "as §1"}, "GlcNAc3Prop(b1-4)GlcNAc": {"molecular_target": "GlcNAc3Prop(b1-4)GlcNAc", "procedure,_shortened": "as §1"}, "Kdn(a2-3)Gal(b1-3)GlcNAc": {"molecular_target": "Kdn(a2-3)Gal(b1-3)GlcNAc", "procedure,_shortened": "as §1"}, "Kdn(a2-3)Gal(b1-4)GlcNAc": {"molecular_target": "Kdn(a2-3)Gal(b1-4)GlcNAc", "procedure,_shortened": "as §1"}, "[17]": {"molecular_target": "Man(a1-2)Man(a1-2)Man(a1-3)Man", "procedure,_shortened": "as §1"}, "[18]": {"molecular_target": "Man(a1-2)Man(a1-2)Man(a1-6)[Man(a1-3)]Man", "procedure,_shortened": "as §1"}, "Man(a1-2)Man(a1-3)Man": {"molecular_target": "Man(a1-2)Man(a1-3)Man", "procedure,_shortened": "as §1"}, "[19]": {"molecular_target": "Man(a1-2)Man(a1-3)[Man(a1-2)Man(a1-6)]Man", "procedure,_shortened": "as §1"}, "[20]": {"molecular_target": "Man(a1-2)Man(a1-3)[Man(a1-2)Man(a1-6)]Man(a1-6)[Man(a1-2)Man(a1-2)Man(a1-3)]Man", "procedure,_shortened": "as §1"}, "[21]": {"molecular_target": "Man(a1-2)Man(a1-3)[Man(a1-2)Man(a1-6)]Man(a1-6)[Man(a1-2)Man(a1-2)Man(a1-3)]Man(b1-4)GlcNAc(b1-4)GlcNAc", "procedure,_shortened": "as §1"}, "[22]": {"molecular_target": "Man(a1-2)Man(a1-3)[Man(a1-6)]Man(a1-6)[Man(a1-2)Man(a1-3)]Man(b1-4)GlcNAc(b1-4)GlcNAc", "procedure,_shortened": "as §1"}, "[23]": {"molecular_target": "Man(a1-2)Man(a1-6)[Man(a1-3)]Man(a1-6)[Man(a1-2)Man(a1-2)Man(a1-3)]Man", "procedure,_shortened": "as §1"}, "[24]": {"molecular_target": "Man(a1-2)Man(a1-6)[Man(a1-3)]Man(a1-6)[Man(a1-2)Man(a1-2)Man(a1-3)]Man(b1-4)GlcNAc(b1-4)GlcNAc", "procedure,_shortened": "as §1"}, "Man(a1-3)[Man(a1-6)]Man": {"molecular_target": "Man(a1-3)[Man(a1-6)]Man", "procedure,_shortened": "as §1"}, "[25]": {"molecular_target": "Man(a1-3)[Man(a1-6)]Man(a1-6)[Man(a1-2)Man(a1-3)]Man(b1-4)GlcNAc(b1-4)GlcNAc", "procedure,_shortened": "as §1"}, "[26]": {"molecular_target": "Man(a1-3)[Man(a1-6)]Man(a1-6)[Man(a1-3)]Man", "procedure,_shortened": "as §1"}}, "note": "Some of the results follow."}
{"binder": "B1", "values": [{"measurement": "glycan array binding signal (z-score)", "setting": "GalNAc(b1-4)GlcNAc", "result": -0.573}, {"measurement": "glycan array binding signal (z-score)", "setting": "Glc(a1-4)Glc", "result": 0.29}, {"measurement": "glycan array binding signal (z-score)", "setting": "Glc(a1-6)Glc(a1-6)Glc", "result": -0.239}, {"measurement": "glycan array binding signal (z-score)", "setting": "Glc(b1-4)Glc", "result": -0.548}, {"measurement": "glycan array binding signal (z-score)", "setting": "Glc(b1-6)Glc", "result": -0.622}, {"measurement": "glycan array binding signal (z-score)", "setting": "GlcA(b1-3)Gal", "result": 0.097}, {"measurement": "glycan array binding signal (z-score)", "setting": "GlcA(b1-3)GlcNAc", "result": -0.002}, {"measurement": "glycan array binding signal (z-score)", "setting": "GlcA(b1-6)Gal", "result": -0.284}, {"measurement": "glycan array binding signal (z-score)", "setting": "[1]", "result": -0.486}, {"measurement": "glycan array binding signal (z-score)", "setting": "[2]", "result": -0.738}, {"measurement": "glycan array binding signal (z-score)", "setting": "[3]", "result": -0.531}, {"measurement": "glycan array binding signal (z-score)", "setting": "[4]", "result": -0.364}, {"measurement": "glycan array binding signal (z-score)", "setting": "GlcNAc(b1-3)Gal", "result": 0.174}, {"measurement": "glycan array binding signal (z-score)", "setting": "[5]", "result": 0.104}, {"measurement": "glycan array binding signal (z-score)", "setting": "GlcNAc(b1-3)Gal(b1-4)Glc", "result": 0.399}, {"measurement": "glycan array binding signal (z-score)", "setting": "[6]", "result": -0.176}, {"measurement": "glycan array binding signal (z-score)", "setting": "[7]", "result": 0.047}, {"measurement": "glycan array binding signal (z-score)", "setting": "GlcNAc(b1-3)GalNAc", "result": -0.555}, {"measurement": "glycan array binding signal (z-score)", "setting": "GlcNAc(b1-3)Man", "result": -0.668}, {"measurement": "glycan array binding signal (z-score)", "setting": "[8]", "result": -0.563}, {"measurement": "glycan array binding signal (z-score)", "setting": "[9]", "result": -0.385}, {"measurement": "glycan array binding signal (z-score)", "setting": "[10]", "result": -0.697}, {"measurement": "glycan array binding signal (z-score)", "setting": "[11]", "result": -0.41}, {"measurement": "glycan array binding signal (z-score)", "setting": "GlcNAc(b1-4)GlcNAc", "result": -0.45}, {"measurement": "glycan array binding signal (z-score)", "setting": "[12]", "result": -0.427}, {"measurement": "glycan array binding signal (z-score)", "setting": "[13]", "result": -0.327}, {"measurement": "glycan array binding signal (z-score)", "setting": "[14]", "result": -0.63}, {"measurement": "glycan array binding signal (z-score)", "setting": "[15]", "result": -0.277}, {"measurement": "glycan array binding signal (z-score)", "setting": "[16]", "result": 0.095}, {"measurement": "glycan array binding signal (z-score)", "setting": "GlcNAc(b1-6)GalNAc", "result": -0.125}, {"measurement": "glycan array binding signal (z-score)", "setting": "GlcNAc3Prop(b1-4)GlcNAc", "result": 0.587}, {"measurement": "glycan array binding signal (z-score)", "setting": "Kdn(a2-3)Gal(b1-3)GlcNAc", "result": -0.449}, {"measurement": "glycan array binding signal (z-score)", "setting": "Kdn(a2-3)Gal(b1-4)GlcNAc", "result": -0.23}, {"measurement": "glycan array binding signal (z-score)", "setting": "[17]", "result": 0.811}, {"measurement": "glycan array binding signal (z-score)", "setting": "[18]", "result": -0.264}, {"measurement": "glycan array binding signal (z-score)", "setting": "Man(a1-2)Man(a1-3)Man", "result": 0.119}, {"measurement": "glycan array binding signal (z-score)", "setting": "[19]", "result": 0.412}, {"measurement": "glycan array binding signal (z-score)", "setting": "[20]", "result": -0.097}, {"measurement": "glycan array binding signal (z-score)", "setting": "[21]", "result": -0.555}, {"measurement": "glycan array binding signal (z-score)", "setting": "[22]", "result": 0.343}, {"measurement": "glycan array binding signal (z-score)", "setting": "[23]", "result": 0.333}, {"measurement": "glycan array binding signal (z-score)", "setting": "[24]", "result": -0.426}, {"measurement": "glycan array binding signal (z-score)", "setting": "Man(a1-3)[Man(a1-6)]Man", "result": 9.95}, {"measurement": "glycan array binding signal (z-score)", "setting": "[25]", "result": -0.606}, {"measurement": "glycan array binding signal (z-score)", "setting": "[26]", "result": 0.294}]}
